Measured values published in PubChem BioAssay AID624417 (National Center for Advancing Translational Sciences (NCATS), 2012).
Screen size: about 410,000 compounds; about 6,400 (1.6%) were called active. The inconclusive results got no clear call from the source; some entries with a clear call stand among them for comparison. The call rests on the fitted dose curve; in most records, active means well fitted inhibition curve with a large enough effect; inconclusive means small, poorly fitted or top-dose-only effect; inactive means no such curve, though single readings can be large or run the other way. Potencies of inconclusive entries are left out as doubtful fits.

The molecules below were run against Glucagon-like peptide 1 receptor (Homo sapiens) (UniProt P43220) (assay: qHTS of GLP-1 Receptor Inverse Agonists (Inhibition Mode)). Conditions: HEK293 GLP-1R CRE-luciferase, luminescence, 24 h, GLP-1R form is constitutively active; series mostly up to 38.3 µM.
Sequence of UniProt P43220 (P43220 whole entry, looked up): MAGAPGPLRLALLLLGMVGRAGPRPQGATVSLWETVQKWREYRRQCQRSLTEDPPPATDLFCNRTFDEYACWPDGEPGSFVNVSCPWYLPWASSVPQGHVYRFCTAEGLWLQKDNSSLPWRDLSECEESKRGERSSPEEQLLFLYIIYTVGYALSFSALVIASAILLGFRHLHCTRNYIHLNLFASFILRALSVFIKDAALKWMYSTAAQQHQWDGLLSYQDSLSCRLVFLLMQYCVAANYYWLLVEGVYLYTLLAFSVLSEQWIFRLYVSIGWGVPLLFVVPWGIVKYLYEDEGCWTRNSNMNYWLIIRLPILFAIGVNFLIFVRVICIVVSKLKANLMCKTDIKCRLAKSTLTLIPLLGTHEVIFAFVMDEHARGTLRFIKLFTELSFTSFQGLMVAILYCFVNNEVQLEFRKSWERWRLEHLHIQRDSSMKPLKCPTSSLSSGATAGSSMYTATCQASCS
Method in brief: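 qHTS in 1536-well format: reporter HEK293 cells expressing constitutive GLP-1R activity in DMEM + 10% Nu serum, 24 hr with compounds at 37 deg C, luminescence read after 12 min with detection reagent.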
Further: nearly all actives have a fitted effect of over 55% in size.
Potency means the concentration at half of the fitted maximal effect; tags describe the fitted curve by direction and shape.

Row | SMILES | Potency
1 | C=CCn1c(Cc2cccs2)nnc1SCC(=O)Nc1cc(OC)cc(OC)c1 | inconclusive [inhibitor, partial curve, poor fit]
2 | O=C(NC(=S)NNC(=O)c1ccccc1O)c1cccnc1 | inconclusive [inhibitor, partial curve, poor fit]
3 | COc1ccccc1NC(=O)C1CCC(CNS(=O)(=O)c2ccc3c(c2)CC(C)N3C(C)=O)CC1 (configuration not stated) | inconclusive [inhibitor, partial curve]
4 | O=C1NC(=S)SC1=Cc1ccccc1Cl | inconclusive [inhibitor, single point]
5 | CCC(=O)N(CCC(Cc1ccccc1)c1ccc2c(c1)OCO2)Cc1ccccc1F (configuration not stated) | inconclusive [inhibitor, full curve, poor fit]
6 | CCN(Cc1ccccc1)C(=O)c1cccc(S(=O)(=O)N2CCN(c3ccc(F)cc3)CC2)c1 | inconclusive [inhibitor, partial curve, poor fit]
7 | CN1CCN(C(CNC(=O)C(=O)Nc2cccc(Cl)c2)c2ccc3c(c2)OCO3)CC1 (configuration not stated) | inactive
8 | Cc1ccc2nc3c(c(Nc4ccc(O)cc4)c2c1)CCC3 | inconclusive [inhibitor, single point]
9 | CCOC(=O)c1cc2c(c(CSc3nc4ccccc4c(=O)n3Cc3ccco3)c1)OCOC2 | inconclusive [inhibitor, partial curve, poor fit]
10 | Cc1ccc(NC(=S)N2CCN(c3ccccc3F)CC2)c(C)c1 | inconclusive [inhibitor, single point]
11 | CCCn1nc(C(=O)N2CCN(S(=O)(=O)c3ccc(C)c(C)c3)CC2)c2ccccc2c1=O | inconclusive [inhibitor, single point]
12 | CCN(C[C@H]1N[C@@](CC)(C(=O)OC)[C@H]2C(=O)N(Cc3ccccc3)C(=O)[C@@H]12)S(=O)(=O)c1ccc(C(F)(F)F)cc1 | inconclusive [inhibitor, single point]
13 | c1ccc(OCCn2c(COc3ccccc3)nc3ccccc32)cc1 | inconclusive [inhibitor, single point]
14 | O=C(Nc1ccc(Br)cc1)c1cccc(N2C(=O)C3C4CCC(C4)C3C2=O)c1 (configuration not stated) | inconclusive [inhibitor, partial curve, poor fit]
15 | Cc1cc(C)n(-c2nc(N(C)C)nc(N(C)C)n2)n1 | inconclusive [inhibitor, single point]
16 | COc1ccc(/C=C/C2=CC(C)(C)NC(=S)N2)cc1OC | inconclusive [inhibitor, single point]
17 | COCCCNC(=S)N/N=C/c1cccc(OC)c1O | active: 1.12 µM
18 | CN(C)/C=C/C(=O)c1ccc(Oc2ccccc2)cc1 | inconclusive [inhibitor, single point]
19 | Cc1ccc(C(=O)COc2cccc(NC(=O)c3ccco3)c2)cc1 | inconclusive [inhibitor, partial curve, poor fit]

Row | SMILES | Potency
20 | O=C1/C(=C/c2c[nH]c3ccccc23)CCC/C1=C\c1c[nH]c2ccccc12 | inconclusive [inhibitor, full curve]
21 | O=C(NCc1ccc(Cl)cc1)C1CCCN(C(=O)c2ccc(Cl)cc2)C1 (configuration not stated) | inconclusive [inhibitor, partial curve, poor fit]
22 | O=C(c1ccc(OC2CCN(CCO)CC2)cc1)N1CCCC1 | inconclusive [inhibitor, partial curve, poor fit]
23 | COc1ccc(S(=O)(=O)N2CCCCCC2)cc1C(=O)N(C)Cc1c(F)cccc1Cl | inconclusive [inhibitor, single point]
24 | Nc1sc(-c2ccccc2)cc1-c1n[nH]c(=S)n1C1CCCCC1 | inconclusive [inhibitor, full curve, poor fit]
25 | O=C1OC(Nc2nc(-c3ccc(F)cc3)cs2)c2ccccc21 (configuration not stated) | inconclusive [inhibitor, full curve]
26 | CCn1c2ccccc2c2cc(CN3CCN(Cc4ccccc4C)CC3)ccc21 | inconclusive [inhibitor, single point]
27 | COc1ccc(C)cc1NC(=O)c1ccc2c(c1)nnn2C1CCCC1 | inconclusive [inhibitor, single point]
28 | N=c1c2ccccc2nc2n1CCCCCCC2 | inconclusive [inhibitor, partial curve]
29 | C#CCNC(=O)C[C@@H]1C[C@@]2(C(=O)OCC)CCC=C2N(Cc2ccc(Cl)cc2Cl)C1=O | inconclusive [inhibitor, single point]
30 | C=CCc1cc(S(=O)(=O)c2ccc(O)c(CC=C)c2)ccc1O | inconclusive [inhibitor, single point]
31 | COc1ccc(-c2nc3c(C)cc(Br)cn3c2Cc2cccc(Cl)c2)cc1OC | inconclusive [inhibitor, single point]
32 | CN(CC(=O)Nc1ccc(Cl)c(C(F)(F)F)c1)C(=O)c1cccnc1Sc1ccccc1 | inconclusive [inhibitor, single point]
33 | Cc1noc(C)c1COC(=O)c1ccccc1Sc1ccccc1C#N | active: 8.91 µM
34 | CN(c1ccccc1)S(=O)(=O)c1ccc(NC(=O)CC(=O)c2ccccc2)cc1 | inconclusive [inhibitor, single point]
35 | Cc1ccc(O)c(C(=O)c2cc(C(=O)NCCc3ccccc3)c(=O)n(CCc3ccccc3)c2)c1 | inconclusive [inhibitor, partial curve, poor fit]
36 | CCC(CC)C(=O)OCC(=O)C1(O)CCC2C3CCC4=CC(=O)CCC4(C)C3C(O)CC21C (configuration not stated) | inconclusive [inhibitor, partial curve, poor fit]
37 | COc1cccc(C2CC(c3cccs3)=NN2C(=O)CSC2=NCCS2)c1OC (configuration not stated) | inconclusive [inhibitor, partial curve, poor fit]
